In PMC4336329 (PLoS ONE, 2015):
Screen size: about 310,000 compounds; about 2,200 (0.71%) showed an effect of 50% or more. Effects have a minus sign here. The list shows a part of the results.

Target: human ether-à-go-go-related gene (hERG) potassium channel (human, UniProt Q12809)
Test: primary screen, population patch clamp on CHO cells stably expressing hERG

Sequence of human ether-à-go-go-related gene (hERG) potassium channel (Q12809 whole entry, looked up): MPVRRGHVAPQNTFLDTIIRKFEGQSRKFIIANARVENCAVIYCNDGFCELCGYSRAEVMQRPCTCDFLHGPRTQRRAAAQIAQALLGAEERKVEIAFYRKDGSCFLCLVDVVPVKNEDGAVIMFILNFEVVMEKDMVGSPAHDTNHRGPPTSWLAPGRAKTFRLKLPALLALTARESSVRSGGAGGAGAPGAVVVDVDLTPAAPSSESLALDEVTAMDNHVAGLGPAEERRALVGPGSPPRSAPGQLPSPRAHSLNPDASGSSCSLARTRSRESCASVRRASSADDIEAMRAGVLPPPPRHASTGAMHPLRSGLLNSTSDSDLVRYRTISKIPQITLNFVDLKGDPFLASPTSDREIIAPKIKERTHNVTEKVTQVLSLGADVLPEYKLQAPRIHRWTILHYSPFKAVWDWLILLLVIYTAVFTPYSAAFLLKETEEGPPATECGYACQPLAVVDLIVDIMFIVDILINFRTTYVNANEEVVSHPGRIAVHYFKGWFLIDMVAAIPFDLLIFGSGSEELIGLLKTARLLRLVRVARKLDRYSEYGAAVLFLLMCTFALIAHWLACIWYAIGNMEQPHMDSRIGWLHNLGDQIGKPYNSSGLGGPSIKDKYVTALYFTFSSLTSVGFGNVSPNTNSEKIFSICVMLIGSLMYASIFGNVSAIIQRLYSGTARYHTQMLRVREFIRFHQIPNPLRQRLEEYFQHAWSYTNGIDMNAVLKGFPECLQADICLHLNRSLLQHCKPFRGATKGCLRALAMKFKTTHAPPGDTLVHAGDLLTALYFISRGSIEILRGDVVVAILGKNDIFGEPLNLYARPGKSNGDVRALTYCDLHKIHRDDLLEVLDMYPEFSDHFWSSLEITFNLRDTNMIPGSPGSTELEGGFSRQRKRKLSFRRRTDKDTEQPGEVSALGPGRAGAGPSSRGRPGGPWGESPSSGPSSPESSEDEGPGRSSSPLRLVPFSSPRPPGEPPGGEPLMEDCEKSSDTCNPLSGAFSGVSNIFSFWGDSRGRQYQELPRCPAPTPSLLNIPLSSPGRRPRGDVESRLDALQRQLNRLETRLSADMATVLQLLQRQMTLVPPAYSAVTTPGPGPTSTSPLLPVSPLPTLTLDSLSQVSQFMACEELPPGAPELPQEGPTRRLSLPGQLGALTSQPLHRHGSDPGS

Structure (SMILES) | hERG current change (%, negative = inhibition) at 1uM
N/C(=N\OS(=O)(=O)c1ccc(Cl)cc1)c1ccncc1 | -2.98%
COc1ccc(C(=O)NC(C)CCCC(C)(C)O)cc1OC1CCN(C(C)=O)CC1 (stereo not shown) | 18.2%
Cc1cc(-c2ccc(S(=O)(=O)N3CCN(C)CC3)s2)on1 | 6.37%
CCOc1ccccc1NC(=O)c1ccc2c(c1)C(=O)N(CC(C)C)C2=O | 8.08%
CC1OC2(C)OC(=N)C1(C#N)C(C#N)(C#N)C2c1ccccc1 (stereo not shown) | 21.3%
COc1cc(C2N(c3ccccn3)C(=O)C3CCCN32)cc(OC)c1OC (stereo not shown) | 1.27%
CCCNc1nc(N)nc(-c2cc(Cl)ccc2OC)n1 | 10.4%
CCN1C(=O)[C@@H]2[C@H](C1=O)[C@@H]1C(=O)Nc3ccccc3C(=O)N1[C@@H]2c1ccccc1 | 9.1%
COc1ccc(NC(=O)CCc2nnc3ccc(NCc4ccco4)nn23)cc1 | 10.4%
Clc1ccc(-c2ccn[nH]2)cc1 | 11.3%
COCCOC(=O)c1c(C)nc(SCC(=O)Nc2ccc(C)cc2)c(C#N)c1-c1ccco1 | 11.6%
O=C(Nc1cccc(NC(=O)c2ccc(-c3ccc(Br)cc3)o2)c1)c1ccccc1 | -0.478%
CCC(Cc1ccccc1)NC(=O)c1ccc2nc(N3CCOCC3)sc2c1 (stereo not shown) | 0.867%
CCOc1ccc(NS(=O)(=O)c2ccc(SC)cc2)cc1 | 0.548%
Cc1noc(C)c1C(=O)Nc1cc(Cl)ccc1N1CCOCC1 | 12%
O=C(c1cc(C2CC2)nc2ccccc12)N1N=C(C(F)F)CC1(O)C(F)F (stereo not shown) | 3.05%
O=C(O)CNC(=S)N(Cc1ccco1)Cc1ccccc1Cl | 6.02%
CCc1noc(C)c1C(=O)NNC(=O)c1ccc(Br)cc1 | 9.4%
CN(CC1CCCN(CCc2ccc(Cl)cc2)C1)C(=O)c1ccoc1 (stereo not shown) | -85.3%
COC(=O)c1ccc(NC(=O)c2ccc(C)cc2)o1 | 7.08%
COc1ccccc1N1CCN(CC(O)COCc2cccs2)CC1.Cl (stereo not shown) | 0.795%
COc1cc2oc(=O)cc(C)c2c(OC)c1OC | 9.24%

Structure (SMILES) | hERG current change (%, negative = inhibition) at 1uM
COc1ccc(N2CCN(CCNC(=O)c3c(C)cc(=O)oc3C)CC2)cc1 | -3.07%
CCOC(=O)C(NC(C)=O)C(O)c1ccc([N+](=O)[O-])cc1 (stereo not shown) | 7.93%
Cc1cc2c3c(c1)C1(C(=O)N3C(C)(C)CC2C)C(C#N)=C(N)OC2=C1C(=O)CC(C)(C)C2 (stereo not shown) | 3.67%
O=C(CCS(=O)(=O)c1ccccc1)Nc1ccc(N2CCN(Cc3ccccc3)CC2)cc1 | -0.518%
O=C(CN1CCCCC1)NC(=O)NCc1ccccc1 | 6.69%
O=C(N/N=C/c1ccc(O)c(O)c1O)/C(=C/c1ccc([N+](=O)[O-])cc1)NC(=O)c1ccccc1 | 15.9%
O=C(OC(C(=O)NC1CCCC1)c1cccnc1)C1=Cc2ccccc2OC1 (stereo not shown) | 3.21%
COCCCNC(=O)CCCn1c(=O)c2ccccc2n(CC(=O)Nc2c(C)cc(C)cc2C)c1=O | 7.07%
CCOc1ccc(NC(=O)c2ccc3c(c2)OCCO3)cc1S(=O)(=O)N(CC)CC | -5.32%
COc1ccccc1N(CC(=O)Nc1ccccc1C(=O)NC(C)C)S(C)(=O)=O | 11.9%
Cc1nc(-c2ccccc2)c(Cc2ccccc2O)c(=O)[nH]1 | 13.3%
CCN(CC)c1ccc(/C=C(/C#N)c2nc3ccc(C)cc3[nH]2)c(OC(C)C)c1 | 8.09%
COc1cc(CO)ccc1Oc1nc2ccccc2n2cnnc12 | 9.51%
NC(=O)N=Nc1c(O)[nH]c2ccc([N+](=O)[O-])cc12 | 34.1%
COc1ccc(OCc2cc(C(=O)NCCN3CCCC(O)C3)no2)c(Cl)c1 (stereo not shown) | -2.94%
CC1=C/C(=N\N=C2\NC(=O)C(CC(=O)Nc3ccccc3)S2)CC(C)(C)C1 (stereo not shown) | 8.69%
CCOC(=O)c1cc2sccc2n1Cc1ccccc1 | 5.41%
COC(=O)C(Cc1ccccc1)P(=O)(c1ccccc1)c1ccccc1 (stereo not shown) | 10.4%
COC(=O)c1cc(OC)c(OC)cc1NC(=O)Nc1ccccc1OC | 1.25%
COC(=O)N/N=C/c1cn(Cc2ccc(F)cc2)c2ccccc12 | 9.82%
CS(=O)(=O)N(Cc1ccc(C(=O)NCCSc2ccccn2)cc1)c1ccccc1 | -2.3%
Cc1[nH]c2ccccc2c1C1C(c2ccccc2)=NN=C(C(C)C)N1O (stereo not shown) | 0.519%

Structure (SMILES) | hERG current change (%, negative = inhibition) at 1uM
CN(C)C(CNC(=O)c1ccc(S(=O)(=O)Nc2ccccc2)cc1)c1ccco1 (stereo not shown) | 14%
CC(C)CN(C(=O)COC(=O)Cc1n[nH]c(=O)c2ccccc12)C1CCS(=O)(=O)C1 (stereo not shown) | 11.7%
O=C(O)c1ccc(COc2ccc3c4c(c(=O)oc3c2)CCC4)o1 | 16.3%
O=S(=O)(N/N=C/c1ccc2c(c1)OCO2)c1ccc(Br)cc1 | 10.8%
CCn1c(=O)cc(OCC(=O)NCC2CCCO2)c2ccccc21 (stereo not shown) | 13%
CN=C(Nc1cc(Cl)ccc1Cl)SC1CC(=O)N(c2ccc(C(=O)OC)cc2)C1=O (stereo not shown) | 12.9%
O=C(NNC(=S)Nc1ccccc1)c1ccccc1[N+](=O)[O-] | 22.2%
CCC(C)(c1ccc(C=O)s1)c1ccc(C=O)s1 | 14.4%
CCN(CC)C(=O)c1c2c(nc3ccccc13)-c1ccccc1CC2 | 12.8%
C/C(=C\C(=O)c1ccccc1)NNc1nc2ccccc2s1 | 9.97%
Nc1cc(=O)[nH]c(SCC(=O)Nc2cc([N+](=O)[O-])ccc2Cl)n1 | 1.49%
CCOC(=O)C1CCN(C(=O)CSc2nc(N)cc(=O)[nH]2)CC1 | 16%
COc1cc(OC)c(C2C3=C(CCCC3=O)Nc3nc4ccccc4n32)cc1OC (stereo not shown) | 9.11%
N#Cc1ccccc1Cn1cc(C(=O)c2ccccc2F)c2ccccc21 | 3.41%
CN(C)S(=O)(=O)CC12CCC(CC1=O)C2(C)C (stereo not shown) | 8.97%
CC(C)(O)C#Cc1ccc(C(=O)N2CCN(c3ccc(Cl)cc3)CC2)cc1 | 4.19%
Cc1ccc(CS(=O)Cc2ccc(C(=O)N3CCN(c4ccccc4)CC3)o2)cc1 (stereo not shown) | 11.3%
CN(C)CCCNCCCCNC(=O)/C=N/O | 6.1%
COc1ccc(NCc2nnc(SCC(=O)Nc3ccc(OC)cc3)n2C)cc1 | 6.26%
COc1ccc(/C(O)=C2/C(=O)C(=O)N(CCN3CCOCC3)C2c2ccc(C)cc2)cc1 (stereo not shown) | 2.37%
COc1cc(/C=N\NC(=O)c2ccc(C)nc2)ccc1OC(=O)c1cccc(F)c1 | 4.34%
CC(C)CCNc1nc2c(c(=O)n(Cc3cccc(F)c3)c(=O)n2C)n1C | 4.91%

Structure (SMILES) | hERG current change (%, negative = inhibition) at 1uM
O=C(O)CCCC(=O)Nc1ccc(C(=O)N2CCCCC2)c(Cl)c1 | 13.3%
CN1CCc2nc(SCC(=O)Nc3ccc(F)cc3)c(C#N)cc2C1 | 4.82%
COc1ccc(/C=N/NC(=O)CCn2c3ccccc3c3ccccc32)cc1O | 16.8%
O=[N+]([O-])c1cccc(-c2nnc(C34CC5CC(CC(C5)C3)C4)o2)c1 | 12.2%
COc1cccc(Nc2nnc(SCC3CCCCO3)s2)c1 (stereo not shown) | 10.4%
CC(=O)N1CCOc2ccc(S(=O)(=O)Nc3ccc(Cl)cn3)cc21 | 12.2%
O=C(NCCCN1CCCC1=O)C1CCCO1 (stereo not shown) | 12.6%
CC1CCN(S(=O)(=O)c2cccc(C(=O)NC3CCCCC3)c2)CC1 | 9.12%
OC1(c2ccccc2)Cc2cccc[n+]2C1c1ccccc1.[Br-] (stereo not shown) | 11.4%
COc1ccc(C(=O)NCc2csc(-c3cccs3)n2)cc1 | 7.82%
CCOC(=O)N1CCN(CC(=O)Nc2ccc(F)cc2)CC1 | -73%
COc1ccc2c(c1)CCc1sc(NC(=O)c3ccc(C)cc3)nc1-2 | 14.3%
CC(C)Oc1ccc(C(=O)N2CCCc3ccccc32)cc1 | 11%
CN(CC(=O)NCCc1ccccc1)S(=O)(=O)c1cccc2nsnc12 | -2.05%
O=C1CN(S(=O)(=O)c2ccccc2)CCN1S(=O)(=O)c1ccccc1 | 15.9%
N#Cc1ccc(CSc2nnc(NC(=O)c3ccc(=O)[nH]c3)s2)cc1 | 11.9%
CCN1CCc2nc3sc(C(=O)Nc4cccnc4Cl)c(N)c3cc2C1 | 7.26%
Cc1ccc(-c2nc(NC(=O)CSc3ncn[nH]3)ns2)cc1 | 3.22%
Cc1ccnc2nc(C(=O)OCC(=O)Nc3ccc([N+](=O)[O-])cc3Br)nn12 | 10.5%
CCOC(=O)c1ccccc1NC(=O)CSc1nnc(COc2ccccc2C)n1C | -9.17%
O=C(O)c1nn(CCOc2cccc(Br)c2)c(=O)c2ccccc12 | 9.93%
CN(C)c1cccc(C(=O)Nc2ccc(N3CCOCC3)cc2)c1 | 11.2%
